{"source": "the supplement of paper PMC11417369", "note": "± gives the standard deviation of the averaged measurements. The list shows a part of the results."}
{"tested_on": "PfAP2-EXP AP2 domain (GST-tagged)", "assay": "gcPBM binding intensity (ln(normalized median fluorescence intensity)); higher = stronger DNA binding", "procedure,_shortened": "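After 1 h on an Agilent 4 × 180k array of primer-extended double-stranded 36-bp intergenic genomic probes and negative controls, bound GST-tagged P. falciparum DNA-binding domains were detected with Alexa488 anti-GST antibody and scanned at 488 nm. The domains had been expressed in E. coli, and binding took place in 1× PBS with 1% milk, 0.2 mg/ml BSA, 0.5% salmon testes DNA and 0.03% Triton X-100. Binding intensity is the highest Masliner-normalised natural-log median intensity across replicate spots of either probe orientation.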"}
{"sequence": "ATATTTATTATTATATGTACGTAACATCTTTATAAA [XGTACX_site7016]", "gcPBM binding intensity (ln)": "8.75 ± 0.37"}
{"sequence": "AAATGTTCTTAAAAATGAATAATATATATATATATA [CACACA_negctrl_site796]", "gcPBM binding intensity (ln)": "9.8 ± 0.16"}
{"sequence": "TAAAAAATATTATATACACACAGTATAAAAAAAAAT [CACACA_site4012]", "gcPBM binding intensity (ln)": "8.61 ± 0.53"}
{"sequence": "TTATCCTATACAAGGGAAAAATAAAATAAAATAAAT [TGCATGCA_negctrl_site272]", "gcPBM binding intensity (ln)": "8.59 ± 0.41"}
{"sequence": "ATATACATATTATAATGTACATATTTTAATAACCTT [XGTACX_site7617]", "gcPBM binding intensity (ln)": "8.44 ± 0.33"}
{"sequence": "AGTGTCATATAAAATTGTACTTTTTTTTTTTTCTTT [XGTACX_site5651]", "gcPBM binding intensity (ln)": "8.7 ± 0.29"}
{"sequence": "ATTGATTATTTTCTAGTGCATAAAATAATTTTTTTT", "gcPBM binding intensity (ln)": "8.56 ± 0.21"}
{"sequence": "AATTTAAATTAGAATTGTACTAGAAAAGGAATATAT [XGTACX_site6162]", "gcPBM binding intensity (ln)": "8.72 ± 0.37"}
{"sequence": "AATATAAATAAAAACACACACAATGGTACAGATATA [CACACA_site5930]", "gcPBM binding intensity (ln)": "8.99 ± 0.43"}
{"sequence": "AATTATATAATCTTATAACATAATATAATAACATTT [CACACA_negctrl_site187]", "gcPBM binding intensity (ln)": "8.07 ± 0.44"}
{"sequence": "AAAAAAGAAAAAAGGACACACATAAATATACTCACG [CACACA_site2904]", "gcPBM binding intensity (ln)": "8.6 ± 0.57"}
{"sequence": "ATAATGTTTCTTTCAACACACAAAAAATGAACACAT [CACACA_site1552]", "gcPBM binding intensity (ln)": "8.78 ± 0.53"}
{"sequence": "CATACATACGGACACACACACATATATATATATATA [CACACA_site5598]", "gcPBM binding intensity (ln)": "10.2 ± 0.41"}
{"sequence": "TATATAAGCGCATGCACACGCAAAGGTATATAAATA [CACACA_site622]", "gcPBM binding intensity (ln)": "9.29 ± 0.28"}
{"sequence": "AAAAAAAAAAAATAGACCTCCTAAGCAAAAGAAAAA [GTGCAC_negctrl_site634]", "gcPBM binding intensity (ln)": "8.37 ± 0.53"}
{"sequence": "ATTCTATTATAATATTCACACACTAACGTAAATCAT [CACACA_site2750]", "gcPBM binding intensity (ln)": "8.69 ± 0.42"}
{"sequence": "TAATGACTGAAAAATTGTACATATGTATATATGTAT [XGTACX_site2415]", "gcPBM binding intensity (ln)": "8.41 ± 0.29"}
{"sequence": "TATACATACATACATACACACACACCGATATATATA [CACACA_site7896]", "gcPBM binding intensity (ln)": "8.77 ± 0.42"}
{"sequence": "ATAATTTTCCATATTTGTACATATTTTTTTCCCTTG [XGTACX_site8146]", "gcPBM binding intensity (ln)": "8.9 ± 0.41"}
{"sequence": "CGACTTTTAAAATATACACACATATATATATATATA [CACACA_site825]", "gcPBM binding intensity (ln)": "10.2 ± 0.33"}
{"sequence": "AATACATAAATATTTTGTACATATTATATAAAATAT [XGTACX_site1627]", "gcPBM binding intensity (ln)": "8.41 ± 0.37"}
{"sequence": "GAATGTATTCATAAATGTACTTATAATATTATAATA [XGTACX_site3466]", "gcPBM binding intensity (ln)": "8.46 ± 0.23"}
{"sequence": "ATAACATACATAACAACACACAATATTTATATGTAT [CACACA_site210]", "gcPBM binding intensity (ln)": "8.54 ± 0.38"}
{"sequence": "ATAAATGAAGATAAATTAAAAAAAAAAAAAAAAAAA [CACACA_negctrl_site992]", "gcPBM binding intensity (ln)": "8.11 ± 0.51"}
{"sequence": "CTTGTACCTAGAAATACACACAATTATATAACTTAT [CACACA_site2838]", "gcPBM binding intensity (ln)": "8.49 ± 0.35"}
{"sequence": "ATGAAAAAAAAAAAAAAAAAAAAAAAAAAAAAAAAA [CACACA_negctrl_site1405]", "gcPBM binding intensity (ln)": "8.07 ± 0.3"}
{"sequence": "ATATATATTTAATTTACACACAAAAAAAATTGTTGG [CACACA_site961]", "gcPBM binding intensity (ln)": "8.35 ± 0.39"}
{"sequence": "ACTTTTTAATAATAATAATTATATATATATATATAT [TGCATGCA_negctrl_site459]", "gcPBM binding intensity (ln)": "9.97 ± 0.34"}
{"sequence": "CCACATGAGATGATTACACACATATAAATATTTACA [CACACA_site6222]", "gcPBM binding intensity (ln)": "8.49 ± 0.39"}
{"sequence": "TATAAGAAAATAATGTGTACTAAATAATAAATGCAT [XGTACX_site1204]", "gcPBM binding intensity (ln)": "8.82 ± 0.29"}
{"sequence": "AGAATATATATAATAGTGCAATGTACAATGAACAAA [GTGCAC_site9577]", "gcPBM binding intensity (ln)": "8.9 ± 0.29"}
{"sequence": "TTAAATACTTTTCGAAGTACATTATATATATAATAT [XGTACX_site7530]", "gcPBM binding intensity (ln)": "8.35 ± 0.4"}
{"sequence": "CGCAACACTATTTGGGTGCTCTTCAAAAAAAAAAAA [GTGCAC_site9598]", "gcPBM binding intensity (ln)": "8.12 ± 0.43"}
{"sequence": "ACGAATTAAATGGATTAATATATATATGTATATTTA [CACACA_negctrl_site1512]", "gcPBM binding intensity (ln)": "8.14 ± 0.32"}
{"sequence": "TCCATTCTATTTTTTACACACGTATGTAAATATTAT [CACACA_site2686]", "gcPBM binding intensity (ln)": "8.73 ± 0.47"}
{"sequence": "ATTTGCTTTTATTTTACACACTTGCTCCTGTTGTAC [CACACA_site1088]", "gcPBM binding intensity (ln)": "9.18 ± 0.56"}
{"sequence": "AAAAAAAAATATATTGCACACCTCTCAATAAAAAAA [CACACA_site172]", "gcPBM binding intensity (ln)": "8.63 ± 0.085"}
{"sequence": "TATTTCTTTTGGTTGGTGCATAAAATAATACAATAT [GTGCAC_site9916]", "gcPBM binding intensity (ln)": "8.96 ± 0.057"}
{"sequence": "CAGACCTCTTTGTCATGTACATAAAAAAATAAAGAA [XGTACX_site7887]", "gcPBM binding intensity (ln)": "8.82 ± 0.28"}
{"sequence": "TATAAACAGACGAAAACACACATATGTAAATATATA [CACACA_site4428]", "gcPBM binding intensity (ln)": "8.79 ± 0.57"}
{"sequence": "TACAAAAAGTTATACACACACGTACCTATAAATAGA [CACACA_site6571]", "gcPBM binding intensity (ln)": "8.62 ± 0.52"}
{"sequence": "ATAAAAATAATATCATGTACATATGTGTATTGTATT [XGTACX_site1768]", "gcPBM binding intensity (ln)": "8.54 ± 0.38"}
{"sequence": "AAAAAGCAGGATTATACACACAAATATTTATATGTT [CACACA_site6634]", "gcPBM binding intensity (ln)": "8.26 ± 0.42"}
{"sequence": "GCGTAGTTCGGAAGGGTGCTTTTTTGTTAATAAAAA [GTGCAC_site9592]", "gcPBM binding intensity (ln)": "8.46 ± 0.29"}
{"sequence": "TTATGTTATAAATACACACACAAAAGAAAAAAAAAA [CACACA_site7414]", "gcPBM binding intensity (ln)": "8.52 ± 0.45"}
{"sequence": "TCCCATAATATTAGTAGTACTATTAATATTTTCAGG [XGTACX_site4925]", "gcPBM binding intensity (ln)": "8.33 ± 0.42"}
{"sequence": "ATTTCTTTTTTTTCTTGTACACATATTAAATTTATG [XGTACX_site734]", "gcPBM binding intensity (ln)": "9.14 ± 0.47"}
{"sequence": "TTCTCTATAAATGCTGCACACACATTTAATTATTTA [CACACA_site8828]", "gcPBM binding intensity (ln)": "8.83 ± 0.38"}
{"sequence": "TCTAAACAAATTAATAAAATAAGTATTCAAAATTAT [CACACA_negctrl_site731]", "gcPBM binding intensity (ln)": "8.21 ± 0.45"}
{"sequence": "GTAAAATTTCGGATTTGTACACATGGCTATGAAAAA [XGTACX_site939]", "gcPBM binding intensity (ln)": "8.71 ± 0.35"}
{"sequence": "AATATTTATTTTTTTGCACACATATTTTACATTTTA [CACACA_site3182]", "gcPBM binding intensity (ln)": "9.04 ± 0.34"}
{"sequence": "TTCCCATGTAATATTAAACACACACCCATATAACAC [CACACA_site7905]", "gcPBM binding intensity (ln)": "8.99 ± 0.3"}
{"sequence": "TAACTACTAGAAAAAACACACAAAAAGTAAATATAT [CACACA_site2740]", "gcPBM binding intensity (ln)": "8.98 ± 0.85"}
{"sequence": "TATATAAATGTATACACACACATATAAATATAAATA [CACACA_site6751]", "gcPBM binding intensity (ln)": "8.46 ± 0.49"}
{"sequence": "ATTCTAATTACATATACACACAAAGGTTCATAACAA [CACACA_site3076]", "gcPBM binding intensity (ln)": "8.47 ± 0.37"}
{"sequence": "ATAAACAGATCATATACATGCATATATGTAGAATAA [TGCATGCA_site157]", "gcPBM binding intensity (ln)": "8.81 ± 0.33"}
